In the supplement of paper PMC8728848:
The other results are listed elsewhere or left out.

Experiments:
Experiment in all cases: glycan array binding signal (z-score within array); higher = stronger binding
Settings in all cases: glycan notation: IUPAC condensed, linker removed
Fuc(a1-2)Gal = biological target: Fuc(a1-2)Gal
Procedure, shortened: (§1)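 Glycan array binding is given as a within-array Z-score, which can be read as non-binding when negative. The arrays, 3228 of them, came from the Consortium for Functional Glycomics database and were retained only where the protein sequence was available. Z-scores were averaged across arrays of the same protein sequence at different concentrations or buffers and across linkers.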

Fuc(a1-2)Gal(b1-3)GalNAc = biological target: Fuc(a1-2)Gal(b1-3)GalNAc
Procedure, shortened: as §1

[1] = biological target: Fuc(a1-2)Gal(b1-3)GalNAc(b1-3)Gal
Procedure, shortened: as §1

[2] = biological target: Fuc(a1-2)Gal(b1-3)GalNAc(b1-3)Gal(a1-4)Gal(b1-4)Glc
Procedure, shortened: as §1

[3] = biological target: Fuc(a1-2)Gal(b1-3)GalNAc(b1-4)[Neu5Ac(a2-3)]Gal(b1-4)Glc
Procedure, shortened: as §1

Fuc(a1-2)Gal(b1-3)GlcNAc = biological target: Fuc(a1-2)Gal(b1-3)GlcNAc
Procedure, shortened: as §1

[4] = biological target: Fuc(a1-2)Gal(b1-3)[Fuc(a1-4)]GlcNAc
Procedure, shortened: as §1

Fuc(a1-2)Gal(b1-4)Glc = biological target: Fuc(a1-2)Gal(b1-4)Glc
Procedure, shortened: as §1

Fuc(a1-2)Gal(b1-4)GlcNAc = biological target: Fuc(a1-2)Gal(b1-4)GlcNAc
Procedure, shortened: as §1

[5] = biological target: Fuc(a1-2)Gal(b1-4)GlcNAc(b1-3)Gal(b1-4)GlcNAc
Procedure, shortened: as §1

[6] = biological target: Fuc(a1-2)Gal(b1-4)GlcNAc(b1-3)Gal(b1-4)GlcNAc(b1-3)Gal(b1-4)GlcNAc
Procedure, shortened: as §1

[7] = biological target: Fuc(a1-2)Gal(b1-4)[Fuc(a1-3)]GlcNAc
Procedure, shortened: as §1

Fuc(a1-2)GlcNAc = biological target: Fuc(a1-2)GlcNAc
Procedure, shortened: as §1

Fuc(a1-2)[Gal(a1-3)]Gal = biological target: Fuc(a1-2)[Gal(a1-3)]Gal
Procedure, shortened: as §1

[8] = biological target: Fuc(a1-2)[Gal(a1-3)]Gal(b1-4)GlcNAc
Procedure, shortened: as §1

[9] = biological target: Fuc(a1-2)[Gal(a1-4)]Gal(b1-4)GlcNAc
Procedure, shortened: as §1

[10] = biological target: Fuc(a1-2)[GalNAc(a1-3)]Gal
Procedure, shortened: as §1

[11] = biological target: Fuc(a1-2)[GalNAc(a1-3)]Gal(b1-4)GlcNAc
Procedure, shortened: as §1

[12] = biological target: Fuc(a1-2)[GalNAc(a1-4)]Gal(b1-4)GlcNAc
Procedure, shortened: as §1

[13] = biological target: Fuc(a1-2)[GalNAc(b1-3)]Gal
Procedure, shortened: as §1

Fuc(a1-3)GlcNAc = biological target: Fuc(a1-3)GlcNAc
Procedure, shortened: as §1

[14] = biological target: Fuc(a1-3)[Gal(b1-4)]GlcNAc
Procedure, shortened: as §1

[15] = biological target: Fuc(a1-3)[Gal(b1-4)]GlcNAc(b1-3)Gal(b1-4)[Fuc(a1-3)]GlcNAc
Procedure, shortened: as §1

[16] = biological target: Fuc(a1-3)[Gal(b1-4)]GlcNAc(b1-3)Gal(b1-4)[Fuc(a1-3)]GlcNAc(b1-3)Gal(b1-4)[Fuc(a1-3)]GlcNAc
Procedure, shortened: as §1

[17] = biological target: Fuc(a1-3)[Gal3S(b1-4)]GlcNAc
Procedure, shortened: as §1

Fuc(b1-3)GlcNAc = biological target: Fuc(b1-3)GlcNAc
Procedure, shortened: as §1

Gal(a1-2)Gal = biological target: Gal(a1-2)Gal
Procedure, shortened: as §1

Gal(a1-3)Gal = biological target: Gal(a1-3)Gal
Procedure, shortened: as §1

Gal(a1-3)Gal(b1-4)Glc = biological target: Gal(a1-3)Gal(b1-4)Glc
Procedure, shortened: as §1

Gal(a1-3)Gal(b1-4)GlcNAc = biological target: Gal(a1-3)Gal(b1-4)GlcNAc
Procedure, shortened: as §1

[18] = biological target: Gal(a1-3)Gal(b1-4)[Fuc(a1-3)]GlcNAc
Procedure, shortened: as §1

Gal(a1-3)GalNAc = biological target: Gal(a1-3)GalNAc
Procedure, shortened: as §1

[19] = biological target: Gal(a1-3)[Gal(a1-4)]Gal(b1-4)GlcNAc
Procedure, shortened: as §1

Gal(a1-4)Gal(b1-4)Glc = biological target: Gal(a1-4)Gal(b1-4)Glc
Procedure, shortened: as §1

Gal(a1-4)Gal(b1-4)GlcNAc = biological target: Gal(a1-4)Gal(b1-4)GlcNAc
Procedure, shortened: as §1

Gal(a1-4)GlcNAc = biological target: Gal(a1-4)GlcNAc
Procedure, shortened: as §1

B1: FBG1 (Homo sapiens), Q9UK22 (protein)
chain: MDGDGDPESVGQPEEASPEEQPEEASAEEERPEDQQEEEAAAAAAYLDELPEPLLLRVLAALPAAELVQACRLVCLRWKELVDGAPLWLLKCQQEGLVPEGGVEEERDHWQQFYFLSKRRRNLLRNPCGEEDLEGWCDVEHGGDGWRVEELPGDSGVEFTHDESVKKYFASSFEWCRKAQVIDLQAEGYWEELLDTTQPAIVVKDWYSGRSDAGCLYELTVKLLSEHENVLAEFSSGQVAVPQDSDGGGWMEISHTFTDYGPGVRFVRFEHGGQDSVYWKGWFGARVTNSSVWVEP
Fuc(a1-2)Gal
  glycan array binding signal (z-score): -0.19
Fuc(a1-2)Gal(b1-3)GalNAc
  glycan array binding signal (z-score): -0.234
[1]
  glycan array binding signal (z-score): -0.236
[2]
  glycan array binding signal (z-score): 0.049
[3]
  glycan array binding signal (z-score): -0.235
Fuc(a1-2)Gal(b1-3)GlcNAc
  glycan array binding signal (z-score): -0.135
[4]
  glycan array binding signal (z-score): -0.248
Fuc(a1-2)Gal(b1-4)Glc
  glycan array binding signal (z-score): -0.145
Fuc(a1-2)Gal(b1-4)GlcNAc
  glycan array binding signal (z-score): -0.226
[5]
  glycan array binding signal (z-score): 0.482
[6]
  glycan array binding signal (z-score): -0.224
[7]
  glycan array binding signal (z-score): -0.22
Fuc(a1-2)GlcNAc
  glycan array binding signal (z-score): -0.195
Fuc(a1-2)[Gal(a1-3)]Gal
  glycan array binding signal (z-score): -0.04
[8]
  glycan array binding signal (z-score): -0.217
[9]
  glycan array binding signal (z-score): -0.261
[10]
  glycan array binding signal (z-score): -0.214
[11]
  glycan array binding signal (z-score): -0.246
[12]
  glycan array binding signal (z-score): -0.197
[13]
  glycan array binding signal (z-score): -0.163
Fuc(a1-3)GlcNAc
  glycan array binding signal (z-score): -0.216
[14]
  glycan array binding signal (z-score): -0.214
[15]
  glycan array binding signal (z-score): -0.045
[16]
  glycan array binding signal (z-score): -0.227
[17]
  glycan array binding signal (z-score): -0.158
Fuc(b1-3)GlcNAc
  glycan array binding signal (z-score): -0.199
Gal(a1-2)Gal
  glycan array binding signal (z-score): -0.175
Gal(a1-3)Gal
  glycan array binding signal (z-score): -0.252
Gal(a1-3)Gal(b1-4)Glc
  glycan array binding signal (z-score): -0.222
Gal(a1-3)Gal(b1-4)GlcNAc
  glycan array binding signal (z-score): -0.265
[18]
  glycan array binding signal (z-score): -0.23
Gal(a1-3)GalNAc
  glycan array binding signal (z-score): -0.228
[19]
  glycan array binding signal (z-score): -0.135
Gal(a1-4)Gal(b1-4)Glc
  glycan array binding signal (z-score): -0.196
Gal(a1-4)Gal(b1-4)GlcNAc
  glycan array binding signal (z-score): -0.214
Gal(a1-4)GlcNAc
  glycan array binding signal (z-score): -0.221
